Results on 25 sequences are retold here after the supplement of paper PMC11417369.

± gives the standard deviation of the averaged measurements. The list shows a part of the results.

In the experiment the test system is PfAP2-EXP AP2 domain (GST-tagged). In words: gcPBM binding intensity (ln(normalized median fluorescence intensity)); higher = stronger DNA binding. The method in brief: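 GST-fused DNA-binding domains of P. falciparum, expressed in E. coli, were applied at about 25 μg on average for 1 h to an Agilent 4 × 180k array of primer-extended double-stranded 36-bp intergenic genomic probes and negative controls. Binding intensity is the highest Masliner-normalised natural-log median intensity across replicate spots of either probe orientation, measured with Alexa488 anti-GST antibody and a 488 nm scan.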
Consider “AAAATATTTATTTTTTGTACACATAAAAACGCACTT [XGTACX_site4132]”, for which the “gcPBM binding intensity (ln)” value worked out at 8.62 ± 0.11.

Take “ATATGTCCATATAGTAAATGTTACATTTTAAAGCGC [XGTACX_negctrl_site168]”: the “gcPBM binding intensity (ln)” value was found to be 8.59 ± 0.32.

With ATTCTTAAAAAATAAGTGCAAAATAATTAAATAAAT, the “gcPBM binding intensity (ln)” value is 8.94 ± 0.071.

In the case of “AGAATGGTTTATAAAGGTACGTAATTTTTAATTTTA [XGTACX_site383]”, the “gcPBM binding intensity (ln)” value is 8.2 ± 0.38.

For “TAAAAAAATTATATTTGTACATATTAATATAGCCTT [XGTACX_site4833]”, the “gcPBM binding intensity (ln)” value is 8.33 ± 0.37.

For “AAACGTATTCTATAAAGTACATTATTATAGTAGACC [XGTACX_site8068]”, the “gcPBM binding intensity (ln)” value was determined as 8.53 ± 0.37.

In the case of “TATTGAATAAAATGCACACGCATGCGTTATTTATTA [CACACA_site3479]”, the “gcPBM binding intensity (ln)” value stood at 8.96 ± 0.18.

On to AAAATGTAATATTGGGTGCACAATAAGTTTGATGTC, for which the “gcPBM binding intensity (ln)” value is 9.565 ± 0.021.

For “TAGTATTAAATATATACACACATATATACCTATAGA [CACACA_site5219]”, the “gcPBM binding intensity (ln)” value came out at 8.44 ± 0.38.

For “TGAAAAGATAAAAAAAGTACACACACACATATATAT [XGTACX_site6504]”, the “gcPBM binding intensity (ln)” value was 9.02 ± 0.45.

Regarding “TTTAGTGTTATAAAAAGTACATAATAATTCCTTTTC [XGTACX_site3208]”, the “gcPBM binding intensity (ln)” value came to 8.08 ± 0.028.

As for “TTATAAATAATGAGAAACATTAAATTTAATCATAAA [CACACA_negctrl_site523]”, the “gcPBM binding intensity (ln)” value came to 8.21 ± 0.4.

“AAAAATTCAATAGGACGTACTAAAACATTCATTAAT [XGTACX_site1712]”: the “gcPBM binding intensity (ln)” value amounted to 8.7 ± 0.48.

Regarding “TACTATATATATATATATATATATATATATATTTAT [GTGCAC_negctrl_site593]”, the “gcPBM binding intensity (ln)” value worked out at 8.7 ± 0.071.

With “GCTTATATTAATAAGGTGCTTTTTATTTCGTGTGTA [GTGCAC_site9649]”, the “gcPBM binding intensity (ln)” value was determined as 8.61 ± 0.36.

As to “TTATATAAAGAATGTACACACAGAAATGCACAGACA [CACACA_site5288]”, the “gcPBM binding intensity (ln)” value turned out to be 8.9 ± 0.32.

Consider “AATATGTACAGACATACACACATATTTATATTTATA [CACACA_site6694]”, for which the “gcPBM binding intensity (ln)” value stood at 8.49 ± 0.36.

As for “TCATAGTATAAACACACACACACACCCATATATATA [CACACA_site8512]”, the “gcPBM binding intensity (ln)” value was 8.93 ± 0.29.

“TAAATATATAAATACACACACACCAAAGCAATAGAT [CACACA_site5605]”: the “gcPBM binding intensity (ln)” value stood at 9.05 ± 0.61.

“TCCATATGCATGTATTGTACTGTAATATATTAAAAA [XGTACX_site472]”: the “gcPBM binding intensity (ln)” value is 8.89 ± 0.27.

For the sequence “AGCAGTCGACAGGACAGTACACAGTAGCCAGGAAAT [XGTACX_site4929]”, the “gcPBM binding intensity (ln)” value was 8.88 ± 0.72.

Consider “AAAAAAAAAAAAGAAACACACACATATATATATATA [CACACA_site8525]”, for which the “gcPBM binding intensity (ln)” value was found to be 10.1 ± 0.31.

Regarding “ATTATTAAAAATATGGGTACATATTATTGTTATATA [XGTACX_site1958]”, the “gcPBM binding intensity (ln)” value is 8.32 ± 0.2.

Take “TGAATATAACAAATATGTACTTAAAATTGTTATATT [XGTACX_site5679]”: the “gcPBM binding intensity (ln)” value was 8.38 ± 0.24.

As to “CACACTTGCTCCTGTTGTACATAACCATAAGCAACA [XGTACX_site2102]”, the “gcPBM binding intensity (ln)” value was 8.85 ± 0.34.
